Data reported in PubChem BioAssay (Tox21).
Several values for one entry are separate records, joined by “and”; a condition that tells them apart may be missing. Identical values can stand only once. The inconclusive results got no clear call from the source; some entries with a clear call stand among them for comparison. For part of these data: Potencies beside an inconclusive call are fits to weak or partial responses and may not hold up. Activity calls are given as the source filed them. Unless noted, calls follow the shape of the dose curve; as a rule, active = well fitted curve in the direction sought with a large enough effect in the repeat runs; inconclusive = weak or mixed curves; inactive = no such curve, though single readings can be large; an effect the other way counts as inactive or inconclusive.

Key:
[1] = biological target: Peroxisome proliferator-activated receptor gamma (Homo sapiens) (UniProt P37231); assay: qHTS assay to identify small molecule antagonists of the peroxisome proliferator-activated receptor gamma (PPARg) signaling pathway (AID 743191; calls by dose curve; also: % is scaled to controls: 0 for no effect and ±100 for the full control effect; nearly all actives have a fitted effect of over 30% in size); settings: HEK293H PPARg-UAS-bla, beta-lactamase ratio, antagonist, 17 h
Sequence of UniProt P37231 (P37231 whole entry, looked up): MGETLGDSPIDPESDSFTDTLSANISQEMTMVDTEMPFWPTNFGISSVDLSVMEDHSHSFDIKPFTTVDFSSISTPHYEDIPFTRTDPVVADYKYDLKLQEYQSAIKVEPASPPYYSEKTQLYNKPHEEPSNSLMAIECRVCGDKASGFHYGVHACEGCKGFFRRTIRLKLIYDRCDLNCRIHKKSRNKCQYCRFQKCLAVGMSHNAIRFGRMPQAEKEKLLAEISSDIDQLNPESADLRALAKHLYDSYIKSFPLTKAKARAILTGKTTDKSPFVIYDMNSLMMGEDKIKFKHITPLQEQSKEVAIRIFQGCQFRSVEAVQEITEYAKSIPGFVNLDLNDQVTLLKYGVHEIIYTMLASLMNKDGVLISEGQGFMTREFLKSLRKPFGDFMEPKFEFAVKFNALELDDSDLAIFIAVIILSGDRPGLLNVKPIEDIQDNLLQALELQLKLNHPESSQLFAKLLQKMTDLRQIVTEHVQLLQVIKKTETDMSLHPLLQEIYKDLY
How it was run: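 Beta-lactamase reporter under UAS control in HEK293H PPARg-bla cells; compound treatment 17 h at 37C. Read-out: fluorescence intensity after 1 h room-temperature incubation with LiveBLAzer B/G FRET substrate.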

[2] = biological target: Peroxisome proliferator-activated receptor gamma (Homo sapiens) (UniProt P37231); assay: qHTS assay to identify small molecule agonists of the peroxisome proliferator-activated receptor gamma (PPARg) signaling pathway (AID 743094; active = well fitted activation curve with a large enough effect in the signal ratio in the repeat runs, not every such curve was filed as active; inconclusive = weak or mixed curves, or effect the other way; inactive = no such curve, though single readings can be large or run the other way; the % refers to the signal ratio; also: potency is read from the fitted curve at half-maximal effect); settings: HEK293H PPARg-UAS-bla, beta-lactamase FRET ratio, 17 h; activation: at 57 µM (top of the series) unless noted
How it was run: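 Agonist activity was taken from a beta-lactamase reporter (FRET substrate, 1 h at room temperature) in HEK293H cells carrying a PPARg UAS-bla construct. Compounds in DMSO were incubated 17 h at 37C after a 5 h cell pre-incubation.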

[3] = qHTS assay for small molecule agonists of the antioxidant response element (ARE) signaling pathway (AID 743202; active = well fitted activation curve with a large enough effect in the signal ratio in the repeat runs, not every such curve was filed as active; inconclusive = weak or mixed curves, or effect the other way; inactive = no such curve, though single readings can be large or run the other way; the % refers to the signal ratio; also: potency is read from the fitted curve at half-maximal effect); settings: HepG2 ARE-bla reporter, beta-lactamase FRET, 16 h; activation: at 73.3 µM (top of the series) unless noted
How it was run: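 Beta-lactamase reporter activity, read as fluorescence intensity, reflects ARE/Nrf2 pathway induction in HepG2 cells after 16 h compound exposure at 37 C; substrate loading was 2 h at room temperature.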

[4] = biological target: Peroxisome proliferator-activated receptor delta (Homo sapiens) (UniProt Q03181); assay: qHTS assay to identify small molecule antagonists of the peroxisome proliferator-activated receptor delta (PPARd) signaling pathway (AID 743215; active = well fitted inhibition curve with a large enough effect in the signal ratio in the repeat runs, not every such curve was filed as active; inconclusive = weak or mixed curves, or effect the other way; inactive = no such curve, though single readings can be large or run the other way; the % refers to the signal ratio;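 also: cells stimulated with agonist L165041 at 300 nM final during compound exposure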; also: potency is read from the fitted curve at half-maximal effect); settings: HEK293H PPARd-UAS-bla, beta-lactamase FRET ratio, antagonist, 17 h; ratio activity, negative = inhibition: at 62 µM (top of the series) unless noted
Sequence of UniProt Q03181 (Q03181 whole entry, looked up): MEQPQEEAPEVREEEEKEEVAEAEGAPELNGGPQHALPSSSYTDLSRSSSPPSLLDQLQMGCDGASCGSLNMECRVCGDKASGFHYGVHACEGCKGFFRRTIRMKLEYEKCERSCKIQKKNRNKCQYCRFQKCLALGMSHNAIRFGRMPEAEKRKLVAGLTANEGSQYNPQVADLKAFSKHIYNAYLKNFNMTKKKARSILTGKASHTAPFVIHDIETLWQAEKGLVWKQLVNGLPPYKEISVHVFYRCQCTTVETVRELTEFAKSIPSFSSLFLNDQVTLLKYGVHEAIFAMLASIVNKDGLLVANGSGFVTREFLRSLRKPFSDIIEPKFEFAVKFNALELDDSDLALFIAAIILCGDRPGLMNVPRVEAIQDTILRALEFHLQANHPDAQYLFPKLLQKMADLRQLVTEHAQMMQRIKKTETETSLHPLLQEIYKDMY
How it was run: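 Agonist L165041 (300 nM final) added with compound to PPARd-bla HEK293H UAS-bla reporter cells; 17 h incubation at 37 C. Read-out: LiveBLAzer FRET substrate, 2 h at room temperature, fluorescence intensity.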

[5] = biological target: Bile acid receptor (Homo sapiens) (UniProt Q96RI1); assay: qHTS assay to identify small molecule antagonists of the farnesoid-X-receptor (FXR) signaling pathway (AID 743217; active = well fitted inhibition curve with a large enough effect in the signal ratio in the repeat runs, not every such curve was filed as active; inconclusive = weak or mixed curves, or effect the other way; inactive = no such curve, though single readings can be large or run the other way; the % refers to the signal ratio; also: % is scaled to controls: 0 for no effect and ±100 for the full control effect); settings: HEK293T FXR-UAS-bla, beta-lactamase ratio, CDCA-stimulated, 16 h; activity change, negative = inhibition: at 62.6 µM (top of the series) unless noted
Sequence of UniProt Q96RI1 (Q96RI1 whole entry, looked up): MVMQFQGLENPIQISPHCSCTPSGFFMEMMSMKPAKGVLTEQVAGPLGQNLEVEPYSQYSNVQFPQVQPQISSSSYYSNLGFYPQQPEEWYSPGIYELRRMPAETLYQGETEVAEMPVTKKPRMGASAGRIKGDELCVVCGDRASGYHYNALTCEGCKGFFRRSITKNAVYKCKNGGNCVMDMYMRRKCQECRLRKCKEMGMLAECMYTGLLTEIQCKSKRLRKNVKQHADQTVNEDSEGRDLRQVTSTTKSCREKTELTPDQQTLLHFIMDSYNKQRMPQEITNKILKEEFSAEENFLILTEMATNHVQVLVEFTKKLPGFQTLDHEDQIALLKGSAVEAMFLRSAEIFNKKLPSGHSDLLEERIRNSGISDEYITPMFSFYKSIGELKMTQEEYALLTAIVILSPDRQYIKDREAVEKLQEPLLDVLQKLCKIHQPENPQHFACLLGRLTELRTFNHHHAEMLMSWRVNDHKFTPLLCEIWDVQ
How it was run: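 Antagonist mode: chenodeoxycholic acid at 50 uM final stimulates a UAS-driven beta-lactamase reporter in HEK 293T FXR-bla cells during 16 h, 37C compound exposure. Read-out is FRET substrate fluorescence after 2 h at room temperature.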

[6] = qHTS assay to identify small molecule agonists of the farnesoid-X-receptor (FXR) signaling pathway - cell viability counter screen (AID 743218); settings: FXR-bla HEK293T viability, CellTiter-Glo luminescence, 16 h; viability change, negative = cytotoxic: at 62.6 µM (top of the series) unless noted; also: nearly all actives have a fitted effect of over 45% in size; also: potency is read from the fitted curve at half-maximal effect
How it was run: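 Viability counter screen in the same wells: CellTiter-Glo luminescence, 30 min room-temperature incubation, measured after the beta-lactamase read. Cells were GeneBLAzer FXR-UAS-bla HEK 293T, compound-treated 16 h at 37C.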

[7] = biological target: Bile acid receptor (Homo sapiens) (UniProt Q96RI1); assay: qHTS assay to identify small molecule agonists of the farnesoid-X-receptor (FXR) signaling pathway (AID 743220; active = well fitted activation curve with a large enough effect in the signal ratio in the repeat runs, not every such curve was filed as active; inconclusive = weak or mixed curves, or effect the other way; the % refers to the signal ratio; also: % is scaled to controls: 0 for no effect and ±100 for the full control effect); settings: HEK293T FXR-UAS-bla, beta-lactamase FRET ratio, 16 h; activation: at 62.6 µM (top of the series) unless noted
How it was run: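 FXR-UAS-bla HEK 293T cells carrying a UAS-driven beta-lactamase reporter were plated for 5 h at 37C/5% CO2, then exposed to DMSO-dissolved Tox21 10K compounds for 16 h at 37C. A LiveBLAzer B/G FRET substrate was loaded for 2 h at room temperature before fluorescence reading.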

[8] = biological target: Vitamin D3 receptor (Homo sapiens) (UniProt P11473); assay: qHTS assay to identify small molecule agonists of the vitamin D receptor (VDR) signaling pathway (AID 743222; calls by dose curve; also: potency is read from the fitted curve at half-maximal effect); settings: HEK293T VDR-UAS-bla, beta-lactamase FRET ratio, 16 h; activation: at 63.5 µM (top of the series) unless noted
Sequence of UniProt P11473 (P11473 whole entry, looked up): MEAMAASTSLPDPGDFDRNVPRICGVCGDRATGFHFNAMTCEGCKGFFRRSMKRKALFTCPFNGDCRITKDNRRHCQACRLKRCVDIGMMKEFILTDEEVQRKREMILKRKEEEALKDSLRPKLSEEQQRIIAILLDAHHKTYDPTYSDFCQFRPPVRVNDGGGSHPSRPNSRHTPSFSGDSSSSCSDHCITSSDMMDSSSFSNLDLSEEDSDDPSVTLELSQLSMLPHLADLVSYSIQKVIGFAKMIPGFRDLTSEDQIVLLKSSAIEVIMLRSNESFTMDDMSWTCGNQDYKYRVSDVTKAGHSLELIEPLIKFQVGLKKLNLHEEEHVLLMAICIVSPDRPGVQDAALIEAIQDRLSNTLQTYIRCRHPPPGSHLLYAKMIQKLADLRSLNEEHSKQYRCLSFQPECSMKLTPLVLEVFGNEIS
How it was run: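 Agonist mode, beta-lactamase reporter: fluorescence from LiveBLAzer B/G FRET substrate (2 h, room temperature) read after 16 h compound treatment at 37 C of VDR-bla cells, which were pre-incubated 4 h after seeding.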

[9] = biological target: Vitamin D3 receptor (Homo sapiens) (UniProt P11473); assay: qHTS assay to identify small molecule antagonists of the vitamin D receptor (VDR) signaling pathway (AID 743223; active = well fitted inhibition curve with a large enough effect in the signal ratio in the repeat runs, not every such curve was filed as active; inconclusive = weak or mixed curves, or effect the other way; inactive = no such curve, though single readings can be large or run the other way; the % refers to the signal ratio; also: potency is read from the fitted curve at half-maximal effect); settings: VDR-UAS-bla HEK293T, beta-lactamase FRET ratio, 16 h; activity change, negative = inhibition: at 61 µM (top of the series) unless noted
How it was run: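 Quantitative HTS in VDR-bla reporter cells stimulated with 1alpha,25-dihydroxyvitamin D3, 3 nM final. Compound exposure 16 h, 37C, 5% CO2. Read-out: beta-lactamase FRET substrate fluorescence, 2 h RT.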

[10] = qHTS assay for small molecule activators of the heat shock response signaling pathway (AID 743210; active = well fitted activation curve with a large enough effect in the signal ratio in the repeat runs, with a control signal flat, not every such curve was filed as active; inconclusive = weak or mixed curves; the % refers to the signal ratio;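 also: HeLa cells with beta-lactamase reporter driven by heat shock elements; % is scaled to controls: 0 for no effect and ±100 for the full control effect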); settings: HeLa HSE-bla reporter, beta-lactamase ratio, 5 h; activation: at 62.6 µM (top of the series)
How it was run: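 Fluorescence from a cleaved B/G FRET substrate (2.5 h, room temp) reports HSE-driven beta-lactamase in HeLa cells treated 5 h at 37 C with DMSO-dissolved compounds.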

[11] = qHTS assay to identify small molecule agonists of the peroxisome proliferator-activated receptor delta (PPARd) signaling pathway - cell viability counter screen (AID 743211); settings: PPARd-bla HEK293H viability, CellTiter-Glo luminescence, 17 h; activity change, negative = cytotoxicity: at 62.6 µM (top of the series); also: nearly all actives have a fitted effect of over 55% in size; also: potency is read from the fitted curve at half-maximal effect
How it was run: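 Tox21 library compounds, delivered in DMSO, were incubated 17 h with PPARd-bla HEK293H cells; cytotoxicity was taken from CellTiter-Glo luminescence read 30 min after reagent addition.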

[12] = biological target: Peroxisome proliferator-activated receptor delta (Homo sapiens) (UniProt Q03181); assay: qHTS assay to identify small molecule agonists of the peroxisome proliferator-activated receptor delta (PPARd) signaling pathway (AID 743212; calls by dose curve;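 also: HEK293H cells with PPARd UAS beta-lactamase reporter GeneBLAzer system; % is scaled to controls: 0 for no effect and ±100 for the full control effect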); settings: HEK293H PPARd-UAS-bla, beta-lactamase FRET ratio, 17 h; activation: at 62.6 µM (top of the series) unless noted
How it was run: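 Steps: seed PPARd-bla HEK293H cells; incubate 5 h, 37 C, 5% CO2; add compounds in DMSO; incubate, 37 C; add LiveBLAzer B/G FRET substrate; hold 2 h at room temperature; measure fluorescence.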

[13] = qHTS assay to identify small molecule antagonists of the peroxisome proliferator-activated receptor gamma (PPARg) signaling pathway - cell viability counter screen (AID 743194); settings: PPARg-bla HEK293H viability, CellTiter-Glo luminescence, 17 h, co-treated with 50 nM rosiglitazone; activity change, negative = cytotoxicity: at 62.6 µM (top of the series); also: nearly all actives have a fitted effect of over 55% in size; also: potency is read from the fitted curve at half-maximal effect
How it was run: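 Viability was measured as CellTiter-Glo luminescence in GeneBLAzer PPARg UAS-bla HEK293H cells. These cells had been exposed 17 h at 37 C to compounds together with rosiglitazone at 50 nM final, with the beta-lactamase readout taken in the same wells.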

[14] = qHTS assay to identify small molecule antagonists of the peroxisome proliferator-activated receptor delta (PPARd) signaling pathway - cell viability counter screen (AID 743213); settings: PPARd-bla HEK293H viability, CellTiter-Glo luminescence, 17 h; viability change, negative = cytotoxic: at 62 µM (top of the series) unless noted; also: nearly all actives have a fitted effect of over 50% in size; also: potency is read from the fitted curve at half-maximal effect
How it was run: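 In this counter screen, HEK293H cells carrying a UAS-beta-lactamase reporter are co-treated with test compounds and 300 nM L165041 (final) for 17 h at 37 C; cell viability is quantified by CellTiter-Glo luminescence.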

[15] = qHTS assay for small molecule agonists of the antioxidant response element (ARE) signaling pathway - cell viability counter screen (AID 743203; calls by dose curve; also: potency is read from the fitted curve at half-maximal effect; nearly all actives have a fitted effect of over 55% in size); settings: ARE-bla HepG2 viability, CellTiter-Glo luminescence, 16 h; viability change, negative = cytotoxic: at 73.3 µM (top of the series)
How it was run: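 Viability counter screen: CellTiter-Glo luminescence, read after 30 min at room temperature, in ARE-bla HepG2 wells. Compound exposure lasted 16 h at 37C/5% CO2, following a 5 h pre-incubation of the cells after plating.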

[16] = ratio activity, negative = inhibition: at 62.6 µM (top of the series) unless noted
Tags tell the direction and shape of the fitted curve or compound fluorescence and quenching.

CCC(C)(C)C(=O)O
Potency [1, 16]: inactive

CCCc1c(OCCCCc2nn[nH]n2)ccc(C(C)=O)c1O
Potency [2]: inconclusive: 848 nM [activator, full curve] and active: 2.19 µM
activation [3]: inconclusive: 25.8% and inconclusive: 20.4%
Potency [4]: inconclusive: 37.6 µM [activator, partial curve, poor fit]
activity change, negative = inhibition [5]: inconclusive: 16.9%
Potency [6]: inconclusive: 24.5 µM [cytotoxic, partial curve, poor fit]
activation [7]: inconclusive: 2.55%
Potency [8]: inconclusive: 27.5 µM [rising, partial curve]
Potency [9]: inconclusive: 6.74 µM [activator, partial curve, poor fit]
activity change, negative = inhibition [9]: inconclusive: 3.19%

CN(C)CCN(Cc1ccccc1)c1ccccn1
Potency [2]: inactive
Potency [3]: inactive
Potency [10]: inactive
Potency [11]: inconclusive: 33.5 µM [cytotoxic, partial curve, poor fit]
Potency [6]: inconclusive: 16.8 µM [cytotoxic, partial curve, poor fit]

CC(C)(C)N(CCO)CCO
Potency [2]: inactive
Potency [3]: inactive
Potency [12]: inactive
Potency [6]: inactive

CC(C)[C@H]1CC[C@H](C)C[C@@H]1O
ratio activity, negative = inhibition [1, 16]: inconclusive: 15.4% [at 81.1 µM]

O=[N+]([O-])c1cccc(S(=O)(=O)NCCNS(=O)(=O)c2cccc([N+](=O)[O-])c2)c1
Potency [2]: inactive
Potency [13]: inconclusive: 0.015 µM [cytotoxic, full curve, poor fit]
activation [3]: inconclusive: 36.3%
Potency [10]: inactive
Potency [14]: inconclusive: 29.8 µM [cytotoxic, partial curve, poor fit]
Potency [4]: inconclusive: 33.5 µM [rising, partial curve, poor fit]

O=C(O)CC(=O)O
Potency [2]: inactive
Potency [13]: inactive
activation [3]: inconclusive: 24.3%
Potency [11]: inactive
Potency [9]: inactive

C1CCCNCC1
ratio activity, negative = inhibition ([1]; at 62.6 µM (top of the series)): inactive: -2.44%
ratio activity, negative = inhibition [1, 16]: inconclusive: 6.88% [at 81.1 µM]
Potency [13]: inconclusive: 24.5 µM [rising, partial curve]
Potency [3]: inactive
Potency [14]: inactive
Potency [4]: inactive

O=C(O)CCCCC1CCSS1 (stereo unspecified)
ratio activity, negative = inhibition ([1]; at 62.6 µM (top of the series)): inactive: 12% and inactive: 8.55%
ratio activity, negative = inhibition [1, 16]: inconclusive: 9.76%
Potency [13]: inactive
Potency [14]: inactive
Potency [4]: inconclusive: 48.9 µM [rising, single point]
ratio activity, negative = inhibition [4]: inconclusive: 13.2%

Cc1nc(C)nc(N2C[C@@H](C)N(c3ccnc([C@@H](C)O)n3)[C@@H](C)C2)n1
Potency [2]: inactive
Potency [3]: inconclusive: 11.9 µM [falling, partial curve]
Potency [8]: inactive

CCCCCc1ccc(N)cc1
activation [2]: inconclusive: -12.4%
Potency [15]: inconclusive: 68.6 µM [cytotoxic, partial curve, poor fit]
Potency [12]: inactive
Potency [14]: inconclusive: 0.871 µM [cytotoxic, single point]
Potency [4]: inconclusive: 1.1 µM [rising, single point]
Potency [8]: inactive

c1ccc(Cc2ccccc2)cc1
Potency [2]: inactive
Potency [3]: inactive
Potency [7]: inactive
activity change, negative = inhibition [9]: inconclusive: -12.4%

CC(C)=CCC/C(C)=C/CO
Potency [2]: inactive
Potency [14]: inconclusive: 2.98 µM [cytotoxic, single point]
Potency [6]: inconclusive: 0.0079 µM [rising, full curve, poor fit]
Potency [9]: inactive

CCc1ccc(C(=O)C(C)CN2CCCCC2)cc1 (stereo unspecified)
Potency [2]: inactive
Potency [3]: active: 23.7 µM
activation [12]: inconclusive: -10%
Potency [6]: inconclusive: 11.9 µM [rising, full curve]
Potency [9]: inconclusive: 0.0006 µM [falling, partial curve, poor fit]

CC(C)C(O)C(C)(C)CO (stereo unspecified)
ratio activity, negative = inhibition [1, 16]: inconclusive: 13.7% [at 81.1 µM]

CCCCC(CC)C(=O)O (stereo unspecified)
ratio activity, negative = inhibition ([1]; at 29.1 µM (top of the series)): inconclusive: -0.31%
ratio activity, negative = inhibition ([1]; at 62.6 µM (top of the series)): inconclusive: 6.35%
Potency [13]: inconclusive: 5.49 µM [rising, full curve]
activation [3]: inconclusive: 7.98%

C1CCCCC1
Potency [1, 16]: inactive

CCCCCCCCCCC=O
ratio activity, negative = inhibition [1, 16]: inconclusive: -30.2% [at 81.1 µM]

CC(C)CCOCc1ccccc1
Potency [1, 16]: inactive

CC(=O)Nc1ccc(S(=O)(=O)Cl)cc1
Potency [2]: inactive
Potency [3]: inactive
Potency [9]: inactive

[Cl][Pt-2]([Cl])([Cl])[Cl]
activation [2]: inconclusive: 1.37% [at 78.9 µM]
Potency [3]: active: 48.8 µM
Potency [11]: inactive
Potency [14]: inactive
Potency [6]: inactive
